# Experimental data reported in the supplement of paper PMC4604168 (melanoma cell lines).
# This is one part of the list. Most values come without repeats; read them as rough.
# Legend:
# Assay in all cases: cell count relative to DMSO control; melanoma cells; higher = more viable cells
# Details in all cases: library dose: low library concentration; 72 h
# WM115 = system: WM115
# WM1716 = system: WM1716
# WM1745 = system: WM1745
# WM3526 = system: WM3526
# WM3619 = system: WM3619
# WM451Lu = system: WM451Lu
# 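Note: cell number obtained by counting DAPI-stained nuclei in high-throughput microscope images with image analysis software, screen run in 1,536-well plates.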
smiles,measurement,setting,value
"CCCCCCCCc1ccc(CCC(N)(CO)CO)cc1 [fingolimod] + Cc1ccc(NC(=O)c2cccc(N(C)C)c2)cc1NC(=O)c1ccc(O)cc1 [ZM336372] (first compound 2 µM, partner dose 2 µM)",cell count,WM115,83.9%
same,cell count,WM1716,83.2%
same,cell count,WM1745,72.2%
same,cell count,WM3526,83.5%
same,cell count,WM3619,96.2%
same,cell count,WM451Lu,87.4%
"COc1cc2c(Oc3ccc4[nH]c(C)cc4c3F)ncnc2cc1OCCCN1CCCC1 [cediranib] + CC(C)CCN1c2nc(Nc3cc(F)c(O)c(F)c3)ncc2N(C)C(=O)C1C [BID1870] (first compound 0.4 µM, partner dose 0.2 µM)",cell count,WM115,103%
same,cell count,WM1716,88.5%
same,cell count,WM1745,83.6%
same,cell count,WM3526,107%
same,cell count,WM3619,125%
same,cell count,WM451Lu,120%
"CC(C)(C)c1cnc(CSc2cnc(NC(=O)C3CCNCC3)s2)o1 + CCCCCCCCCCCC1=C(O)C(=O)C=C(O)C1=O [Embelin] (first compound 0.01 µM, partner dose 1.2 µM)",cell count,WM115,93%
same,cell count,WM1716,102%
same,cell count,WM1745,86.9%
same,cell count,WM3526,113%
same,cell count,WM3619,126%
same,cell count,WM451Lu,132%
"CC(C)(C)c1cnc(CSc2cnc(NC(=O)C3CCNCC3)s2)o1 + COc1cc2ncnc(Nc3ccc(Oc4ccccc4)cc3)c2cc1OC [SrcI1] (first compound 0.01 µM, partner dose 2 µM)",cell count,WM115,107%
same,cell count,WM1716,97.9%
same,cell count,WM1745,89.7%
same,cell count,WM3526,121%
same,cell count,WM3619,128%
same,cell count,WM451Lu,109%
"NC(=O)c1ccc(N(C(N)=O)c2c(F)cccc2F)nc1-c1ccc(F)cc1F + Cn1cc(/C=C2\C(=O)Nc3cccnc32)c2ccccc21 [GW441756] (first compound 0.4 µM, partner dose 0.4 µM)",cell count,WM115,92.3%
same,cell count,WM1716,110%
same,cell count,WM1745,91.9%
same,cell count,WM3526,105%
same,cell count,WM3619,103%
same,cell count,WM451Lu,109%
"CCCCCCCCc1ccc(CCC(N)(CO)CO)cc1 [fingolimod] + c1cc(-c2cnn3cc(-c4ccc(OCCN5CCCCC5)cc4)cnc23)ccn1 [Dorsomorphin] (first compound 2 µM, partner dose 0.4 µM)",cell count,WM115,100%
same,cell count,WM1716,88.9%
same,cell count,WM1745,85.8%
same,cell count,WM3526,95.4%
same,cell count,WM3619,95.5%
same,cell count,WM451Lu,93.8%
"CCCCCCCCc1ccc(CCC(N)(CO)CO)cc1 [fingolimod] + COc1cc2ncnc(Nc3ccc(Oc4ccccc4)cc3)c2cc1OC [SrcI1] (first compound 2 µM, partner dose 2 µM)",cell count,WM115,94.7%
same,cell count,WM1716,91.8%
same,cell count,WM1745,62.9%
same,cell count,WM3526,87.1%
same,cell count,WM3619,89%
same,cell count,WM451Lu,104%
"CCCCCCCCc1ccc(CCC(N)(CO)CO)cc1 [fingolimod] + COc1cc(Nc2ncc(F)c(Nc3ccc4c(n3)NC(=O)C(C)(C)O4)n2)cc(OC)c1OC [Tamatinib] (first compound 2 µM, partner dose 0.4 µM)",cell count,WM115,94.7%
same,cell count,WM1716,90.9%
same,cell count,WM1745,70.1%
same,cell count,WM3526,61%
same,cell count,WM3619,99.4%
same,cell count,WM451Lu,85%
"NC(=O)c1ccc(N(C(N)=O)c2c(F)cccc2F)nc1-c1ccc(F)cc1F + CCCCCCCCc1ccc(CCC(N)(CO)CO)cc1 [fingolimod] (first compound 0.4 µM, partner dose 2 µM)",cell count,WM115,87.7%
same,cell count,WM1716,80.7%
same,cell count,WM1745,54.7%
same,cell count,WM3526,86.7%
same,cell count,WM3619,68.3%
same,cell count,WM451Lu,104%
"CC(C)(C)c1cnc(CSc2cnc(NC(=O)C3CCNCC3)s2)o1 + CC(C)CCN1c2nc(Nc3cc(F)c(O)c(F)c3)ncc2N(C)C(=O)C1C [BID1870] (first compound 0.01 µM, partner dose 0.2 µM)",cell count,WM115,96.5%
same,cell count,WM1716,85.1%
same,cell count,WM1745,89.1%
same,cell count,WM3526,85.2%
same,cell count,WM3619,91.9%
same,cell count,WM451Lu,97.8%
"CCCCCCCCc1ccc(CCC(N)(CO)CO)cc1 [fingolimod] + CCN(CC)CCCCNc1ncc2cc(-c3cc(OC)cc(OC)c3)c(NC(=O)NC(C)(C)C)nc2n1 [PD173074] (first compound 2 µM, partner dose 0.1 µM)",cell count,WM115,103%
same,cell count,WM1716,101%
same,cell count,WM1745,90.5%
same,cell count,WM3526,65.2%
same,cell count,WM3619,92.4%
same,cell count,WM451Lu,158%
"CCCCCCCCc1ccc(CCC(N)(CO)CO)cc1 [fingolimod] + C=C(c1ccc(C(=O)O)cc1)c1cc2c(cc1C)C(C)(C)CCC2(C)C [Bexarotene] (first compound 2 µM, partner dose 2 µM)",cell count,WM115,91.6%
same,cell count,WM1716,58.1%
same,cell count,WM1745,94.1%
same,cell count,WM3526,75%
same,cell count,WM3619,86%
same,cell count,WM451Lu,95.9%
"CCCCCCCCc1ccc(CCC(N)(CO)CO)cc1 [fingolimod] + O=S(=O)(c1ccccc1)N(CC(F)(F)F)c1ccc(C(O)(C(F)(F)F)C(F)(F)F)cc1 [T0901317] (first compound 2 µM, partner dose 1.4 µM)",cell count,WM115,91.8%
same,cell count,WM1716,72.5%
same,cell count,WM1745,60.5%
same,cell count,WM3526,79.7%
same,cell count,WM3619,68.2%
same,cell count,WM451Lu,86.2%
"CCCCCCCCc1ccc(CCC(N)(CO)CO)cc1 [fingolimod] + COc1cc2c(Oc3ccc4[nH]c(C)cc4c3F)ncnc2cc1OCCCN1CCCC1 [cediranib] (first compound 2 µM, partner dose 0.4 µM)",cell count,WM115,93.1%
same,cell count,WM1716,83%
same,cell count,WM1745,80.8%
same,cell count,WM3526,94.4%
same,cell count,WM3619,117%
same,cell count,WM451Lu,109%
